Experimental data as given in PMC4336329 (PLoS ONE, 2015).
Out of some 310,000 compounds screened, about 2,200 (0.71%) showed an effect of 50% or more. The effect is printed as a negative number. The list shows a part of the results.

The compounds below were run against human ether-à-go-go-related gene (hERG) potassium channel (human, UniProt Q12809) (assay: primary screen, population patch clamp on CHO cells stably expressing hERG).
Sequence of human ether-à-go-go-related gene (hERG) potassium channel (Q12809 whole entry, looked up): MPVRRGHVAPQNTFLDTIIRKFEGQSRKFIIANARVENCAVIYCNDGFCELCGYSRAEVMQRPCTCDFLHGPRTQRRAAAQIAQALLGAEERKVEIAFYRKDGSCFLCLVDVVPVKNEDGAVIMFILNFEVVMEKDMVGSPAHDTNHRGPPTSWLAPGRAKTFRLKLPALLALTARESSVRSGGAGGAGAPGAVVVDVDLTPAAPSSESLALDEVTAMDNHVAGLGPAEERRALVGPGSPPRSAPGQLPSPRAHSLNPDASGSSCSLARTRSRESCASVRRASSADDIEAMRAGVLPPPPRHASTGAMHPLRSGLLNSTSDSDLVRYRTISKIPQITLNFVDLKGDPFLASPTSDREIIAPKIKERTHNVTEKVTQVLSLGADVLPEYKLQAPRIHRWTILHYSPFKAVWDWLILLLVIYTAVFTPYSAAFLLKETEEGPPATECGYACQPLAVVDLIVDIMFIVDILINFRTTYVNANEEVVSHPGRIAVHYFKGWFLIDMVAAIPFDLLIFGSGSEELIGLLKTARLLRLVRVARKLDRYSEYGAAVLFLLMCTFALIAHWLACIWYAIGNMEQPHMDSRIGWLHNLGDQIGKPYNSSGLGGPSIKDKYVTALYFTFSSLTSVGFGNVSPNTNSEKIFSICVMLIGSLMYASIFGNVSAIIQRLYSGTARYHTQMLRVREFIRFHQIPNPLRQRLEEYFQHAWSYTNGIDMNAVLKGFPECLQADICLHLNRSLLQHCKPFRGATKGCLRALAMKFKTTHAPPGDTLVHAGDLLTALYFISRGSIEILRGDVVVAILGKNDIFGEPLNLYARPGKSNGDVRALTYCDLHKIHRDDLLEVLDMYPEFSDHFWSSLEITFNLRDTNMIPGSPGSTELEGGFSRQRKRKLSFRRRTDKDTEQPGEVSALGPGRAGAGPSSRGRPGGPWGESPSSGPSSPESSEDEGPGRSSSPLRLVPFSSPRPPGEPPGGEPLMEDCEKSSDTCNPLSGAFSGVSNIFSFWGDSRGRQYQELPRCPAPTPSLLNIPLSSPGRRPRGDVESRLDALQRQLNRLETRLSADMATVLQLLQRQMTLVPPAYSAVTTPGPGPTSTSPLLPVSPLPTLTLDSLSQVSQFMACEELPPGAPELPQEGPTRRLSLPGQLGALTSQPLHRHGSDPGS

SMILES | hERG current change (%, negative = inhibition) at 1uM [%]
CC1CCCC(C)N1C(=O)CSc1nnc(-c2cccs2)o1 (centres unmarked) | -3.22
CCOC(=O)c1c(C)nc2c(c1-c1ccccc1)C(=O)c1ccccc1-2 | -5.75
O=c1c2ccccc2c(C=Nc2ccc(O)cc2)c(O)n1-c1nccs1 | 6.96
CCCCCc1ccc(OCCCC[n+]2ccc(C)cc2)c(CCCCC)c1.[Cl-] | -21.7
CSc1nc(=S)c2[nH]c(=S)[nH]c2[nH]1 | 13.5
COc1ccccc1-c1oc2ccccc2c1C#CC1(N)CCCCC1 | 19.3
CC1=CC(C)(C)N(C(=O)Nc2ccccc2)c2ccccc21 | 5.89
Cc1ccc(-c2nnn(CC(=O)N3C(C)CCCC3C)n2)cc1 (centres unmarked) | 14.7
COCCN(CCOC)C(=O)CN1C(=O)NC(Cc2c[nH]c3ccccc23)C1=O (centres unmarked) | 5.75
COCCNC(=O)C1CC2Cn3c(nc4ccccc43)C2N1C (centres unmarked) | 14.9
COc1ccccc1C(=O)NNC(=O)c1cccc(Cl)c1 | 11.3
COc1cc2c(c(OC)c1OC)-c1c(cc3c(c1OC)OCO3)[C@@H](OC(C)=O)[C@H](C)[C@H](C)C2 | 0.0059
Cc1nnc(C)n1/N=C/c1ccc(-c2ccccc2)cc1 | 4.4
COc1cccc(C(C(=O)NC2CCCC2)N(C(=O)c2ccco2)c2ccccc2F)c1OC (centres unmarked) | 13.4
COc1ccc(C(=O)C[n+]2ccc(C)cc2)cc1.[Br-] | 13.3
C=CCn1c(=O)c2c(nc3n2CCS3)n(C)c1=O | 10.2
COCCN(C(=O)CSc1nnc(-c2ccccc2OC)o1)c1c(N)n(CC(C)C)c(=O)[nH]c1=O | 5.75
CCCCSc1nc(C)cc(SCC(=O)N/N=C/c2ccccc2)n1 | 8.91
Cc1ccc(N(Cc2ccccc2)C(=O)c2cc(S(=O)(=O)N3CCOCC3)ccc2C)cc1 | 0.412
CC(=O)Nc1nc2ccccc2n1CCN(C)C | 3.11
O=C(Nc1ccc2[nH]c(=S)sc2c1)c1ccccc1 | 12.5
COc1ccc(-c2cnnc(N/N=C/c3c(C)nn(-c4ccccc4)c3Cl)n2)cc1 | 7.36
COc1cccc(NC(=O)CSc2nc3ccccc3c(=O)n2CCCC(=O)N2CCCC2)c1 | -18.2

SMILES | hERG current change (%, negative = inhibition) at 1uM [%]
Cc1cc(C)n2nc(SCC3COc4ccccc4O3)nc2n1 (centres unmarked) | 5.88
Cc1c(F)cccc1NS(=O)(=O)c1ccc2c(c1)c(=O)n(C)c(=O)n2C | -0.593
CC1(c2nnc(-c3ccc(F)cc3)o2)CC(c2ccc([N+](=O)[O-])cc2)=NO1 (centres unmarked) | -12.8
c1ccc(-c2nc3ccccc3nc2-c2ccccn2)nc1 | -2.03
CS(=O)(=O)N(CC(=O)N/N=C/c1ccccn1)c1ccc(Oc2ccccc2)cc1 | 3.39
COC(=O)c1c(-c2ccccc2)csc1N | 5.93
COc1cccc(C(=O)NCC(=O)N2CCC3(CC2)NCCc2[nH]cnc23)c1 | 7.34
CCN(CC)S(=O)(=O)c1ccc(N2CCOCC2)c(NC(=O)C2CCCC2)c1 | 4.5
CCOc1ccc(S(=O)(=O)Nc2cc(OC)c(OC)cc2C(=O)O)cc1 | 3.61
Cc1cccc(C)c1NC(=O)CN(C)C(=O)c1cc(S(=O)(=O)N(C)C)ccc1N1CCCC1 | 16.1
COC(=O)C1C(=O)c2c(C)noc2CC1(C)C (centres unmarked) | 16.8
CC(C)c1ccc(/C=C2\NC(=O)NC2=O)cc1 | 13.1
O=C1CCc2cc(S(=O)(=O)N3CCCCC3)cc3c2N1CCC3 | 11.3
CC1(NC(=O)c2cc(-c3cccs3)nn2-c2ccccc2)CCS(=O)(=O)C1 (centres unmarked) | 11.1
CCN(CC)C(=O)c1cn(C)c2ccc(S(=O)(=O)N(CC)CC)cc2c1=O | 4.7
Cc1cc(OC(=O)c2ccc(S(=O)(=O)N(C)C)cc2)cc(=O)o1 | 7.63
COC(=O)c1c(SCc2ccc(C#N)cc2)nc(=O)[nH]c1C | -40.7
COC(=O)[C@]1(Cc2ccccc2)N[C@H](c2ccc(-c3ccc(Cl)c(Cl)c3)cc2)[C@@H]2C(=O)N(C)C(=O)[C@@H]21.O=C(O)C(F)(F)F | 9.68
Cc1cc(S(=O)(=O)Nc2ccc(C(=O)NCCCn3ccnc3)cc2)ccc1F | 10.4
Nc1nc2n(n1)C(c1ccccc1Cl)CC(c1ccc(F)cc1)N2 (centres unmarked) | 1.25
O=C(Cc1ccccc1)NC(NC(=S)Nc1cc(Cl)ccc1Cl)C(Cl)(Cl)Cl (centres unmarked) | 14.1
CC(=O)Nc1ccc(CCc2nc3ccccc3[nH]2)cc1 | 8.34
CCc1ccc(CN2CCCC(CNC(=O)c3cccc(OC)c3OC)C2)cc1 (centres unmarked) | -7.29

SMILES | hERG current change (%, negative = inhibition) at 1uM [%]
CCC(=O)Oc1ccc(-c2cnc3ccccc3n2)cc1 | 14.2
Cc1cc(Cl)ccc1NC(=S)N(CCCN1CCOCC1)Cc1cccs1 | 3.91
CCN(CC)C(=O)c1c(-c2ccccc2)oc2ccc(O)cc12 | 17.1
O=C1C2C3C=CC([C@@H]2C(=O)N1C1CCCCC1)[C@H]1C(=O)N(C2CCCCC2)C(=O)C31 (some centres unmarked) | 1.92
CCn1ncc(-c2ccnc3cc(C(=O)O)nn23)c1C | 14.8
Cc1[nH]c2ccc(-c3n[nH]c(=S)n3-c3ccccc3)cc2c1C | 7
COc1ccc(C(=O)NC(=S)Nc2ccc3c4c(cccc24)CC3)cc1OC | 20.9
CCCCOc1ccc(C(=O)NCCc2ccccc2)cc1 | 12.6
COc1cc(S(=O)(=O)NCC2CCCO2)ccc1Br (centres unmarked) | 2.81
N#CCCCSc1nnc(Cc2ccc3c(c2)OCO3)o1 | 15.9
Cc1cc(NC(=O)Cn2nc(-c3ccccc3F)ccc2=O)ccc1-n1cnnn1 | 7.13
CCC(c1nnnn1CCOC)N1CCN(Cc2ccccc2)CC1.Cl (centres unmarked) | 7.29
Cc1ccc(C(=O)NC(C)(COc2nonc2C)COc2nonc2C)cc1 | -1.74
COc1ccc(N2C(=S)NC3c4cc(Cl)ccc4OC2(C)C3C(=O)N(C)C)cc1 (centres unmarked) | 17.5
CC1CC(CN)CC(CO)C1 (centres unmarked) | 17.4
Cc1nc(SCC(=O)Nc2nc3ccccc3s2)n[nH]1 | 8.45
CN(C)CCCN(C(=O)c1ccc(S(=O)(=O)N2CCCCCC2)cc1)c1nc2ccc(F)cc2s1.Cl | 9.62
CC1CC(C)CN(S(=O)(=O)c2ccc(C(=O)NCc3ccc4c(c3)OCO4)cc2)C1 (centres unmarked) | 16.7
O=C(CSCc1ccc(Br)cc1)N=Nc1c(O)[nH]c2ccccc12 | 13.7
CCOc1ccc(/C=C2\SC(=S)N(CCC(=O)N(CCO)c3ccccc3)C2=O)cc1 | 12.5
O=C(O)COc1ccc2c3c(c(=O)oc2c1)CCC3 | 10.8
CCOC(=O)CSc1nc(C)c2ccccc2n1 | 17.2
CCC(=O)N1CCN(c2ccc(Cl)cc2NC(=O)Cc2ccc(Cl)cc2)CC1 | 1.41

SMILES | hERG current change (%, negative = inhibition) at 1uM [%]
Cc1cc(Br)ccc1NC(=O)CN(C)C(=O)CN1C(=O)NC(C)(C2CC2)C1=O (centres unmarked) | 8.88
Cc1ccccc1N=C(N)Nc1ccccc1C | 11.2
CCCOC(=O)CSc1nc(N)c(C#N)c(-c2ccco2)c1C#N | 12
Cc1c(C(=O)N(Cc2nnc(-c3ccccc3Cl)o2)C2CC2)oc2ccccc12 | 0.524
CCOC(=O)N1CCN(CC(=O)c2c(C)[nH]c3ccccc23)CC1 | 2.68
COc1ccccc1N/C(N)=N/c1nc(C(F)(F)F)cc(=O)[nH]1 | 13
Cc1ccc(NC(=O)N2CCN(S(=O)(=O)c3ccccc3)CC2)cc1 | 6.95
Cc1cccc(CN2CCC(C(=O)Nc3cccc(-c4cccc(F)c4)c3)CC2)n1 | -66.1
CN(Cc1ccccc1)Cc1c[nH]c2ccccc12 | 3.28
CCCc1cc(=O)oc2cc(OCC(=O)NCCc3ccc(S(N)(=O)=O)cc3)ccc12 | 8.8
CC(C)(C)n1c(=O)[nH]c2c(c1=O)CCC2 | 4.09
Nc1ccc(O)c2c1C(=O)c1ccccc1C2=O | 11.5
Cn1c(SCC(=O)N/N=C/C=C\c2ccccc2[N+](=O)[O-])nc2ccccc21 | 4.09
CC(C)n1nc(C(=O)Oc2cccc(Cl)c2Cl)c2ccccc2c1=O | 3.41
CCOC(=O)Cc1c(C)nc2c(-c3ccccc3)c[nH]n2c1=O | 14.1
COc1ccc(S(=O)(=O)NCCc2c(C)nn(C)c2Oc2ccccc2)cc1 | 11.8
C/C=N/NC(=O)CCNC(=O)c1ccccc1 | 13.4
CCCN(C(=O)c1ccccc1Cc1ccccc1)C1CCS(=O)(=O)C1 (centres unmarked) | 5.7
CC(C)CCSc1ncnc2c1oc1nc3c(cc12)COC(C)(C)C3 | 4.07
Nc1cccnc1S(=O)(=O)c1cccc(C(F)(F)F)c1 | 17.2
